{"source": "ChEMBL document CHEMBL4888484", "about": "“Replenishing the malaria drug discovery pipeline: Screening and hit evaluation of the MMV Hit Generation Library 1 (HGL1) against asexual blood stage Plasmodium falciparum ,using a nano luciferase reporter read-out” (2022)", "note": "In all, about 150,000 compounds went through this assay and about 540 (0.36%) showed an effect of 50% or more. The list shows a part of the results.", "data": [{"tested_on": "Plasmodium falciparum", "test": "Primary screen in NF54 nanoGlo assay, in single point, at 2uM, 72h; a lower Z score goes with more inhibition", "assay_type": "functional, Erythrocyte", "details": "timepoint 72 hour", "units": {"% Inhibition": "%"}, "values": [{"smiles": "CN(C)c1nccc(CNS(=O)(=O)c2ccccc2)n1", "% Inhibition": -12, "Z score": 2.18}, {"smiles": "Cn1c(CN2CCOCC2)nnc1[C@H]1CCCN(c2nc3ccccc3o2)C1", "% Inhibition": 10, "Z score": -1.7}, {"smiles": "O=C(c1ccc2cccc(Cl)c2n1)N1CCN(c2ncc[nH]c2=O)CC1", "% Inhibition": -1, "Z score": 0.09}, {"smiles": "CC(C)n1nnnc1-c1ccc(NC(=O)N2CCCOCC2)cc1F", "% Inhibition": -8, "Z score": 1.13}, {"smiles": "O=C([C@@H]1CCC[C@H](O)C1)N1CCC(n2cnnc2)CC1", "% Inhibition": -10, "Z score": 1.31}, {"smiles": "O=C(O)CC[C@H]1CCCCN1Cc1c(Cl)cncc1Cl", "% Inhibition": -2, "Z score": 0.47}, {"smiles": "CCOC(=O)CN(C)C(=O)CN(C)[C@@H](C)C1CC1", "% Inhibition": -1, "Z score": 0.07}, {"smiles": "CCOc1cccc(CC(=O)N2CCCN(c3cc(=O)n(C)c(=O)n3C)CC2)c1OCC", "% Inhibition": -3, "Z score": 0.45}, {"smiles": "CCCCc1nc(CN2CCC(C(=O)O)(n3ccnc3C)CC2)c[nH]1", "% Inhibition": -10, "Z score": 1.02}, {"smiles": "C[C@@H](Cc1ccco1)NC(=O)c1ccncc1", "% Inhibition": 1, "Z score": -0.17}, {"smiles": "Clc1ccc(OCCCn2ccnc2)c(CN2CC(c3ccccn3)C2)c1", "% Inhibition": 0, "Z score": -0.01}, {"smiles": "O=S(=O)(Nc1cccc2c1CCCC2)c1ccc2c(c1)OCCCO2", "% Inhibition": -7, "Z score": 1.43}, {"smiles": "C#CCN(CC)[C@@H](C)c1cccc(O)c1", "% Inhibition": -10, "Z score": 1.48}, {"smiles": "Cc1c(NC(=O)[C@H]2CCOC2)cccc1N(C)C", "% Inhibition": 2, "Z score": -0.2}, {"smiles": "Cn1c(C2CCN(C(=O)c3cnco3)CC2)nc2ccccc21", "% Inhibition": -8, "Z score": 0.91}, {"smiles": "CCCn1nc(C(=O)O)c2c1CC[C@H](N(C)CC1(C)COC1)C2", "% Inhibition": 6, "Z score": -0.72}, {"smiles": "O=C(CC(F)(F)F)Nc1ccc(Br)cc1", "% Inhibition": -6, "Z score": 1.22}, {"smiles": "CCc1nnc2ccc(S(=O)(=O)N(CC#N)c3ccccc3)cn12", "% Inhibition": 43, "Z score": -6.17}, {"smiles": "Cc1cnc(C)c(NCCCC[C@H]2CCCO2)n1", "% Inhibition": -4, "Z score": 0.56}, {"smiles": "CC1(C)CCc2ccccc2C1NCC(O)COC1CCOCC1", "note": "(stereo not given)", "% Inhibition": -8, "Z score": 1.4}, {"smiles": "Cc1ccc(C(=O)Nc2ccc(N3CCCN(C(=O)Nc4cccc(C)c4)CC3)c(C(=O)NCc3ccc(F)cc3)c2)cc1", "% Inhibition": 18, "Z score": -3.32}, {"smiles": "CCOc1ccc(NC(=O)N2CCC(N3CCN(Cc4ccc(C)cc4)C(=O)C3=O)CC2)cc1", "% Inhibition": -12, "Z score": 1.1}, {"smiles": "COCCN(Cc1ccc(C)o1)C(=O)c1ccc2[nH]c(=O)[nH]c2c1", "% Inhibition": 1, "Z score": -0.23}, {"smiles": "CNC(=NCCOc1ccc(F)c(F)c1)NC", "% Inhibition": -3, "Z score": 0.57}, {"smiles": "CCOCC(=O)N(Cc1cccs1)Cc1cccn1C", "% Inhibition": 18, "Z score": -2.02}, {"smiles": "CC(C)OC1CC(NC(=O)CCn2ccnc2)C1(C)C", "note": "(stereo not given)", "% Inhibition": -4, "Z score": 0.47}, {"smiles": "COCc1cccc(OCC2(CN3CCN(CC(F)F)CC3)CC2)c1", "% Inhibition": -15, "Z score": 2.13}, {"smiles": "CCn1ncc2c1CCC[C@@H]2NCc1cnc2c(C)cccn12", "% Inhibition": -7, "Z score": 0.81}, {"smiles": "Cn1ccc(C2CCN(C(=O)Nc3nsc4ccccc34)CC2)n1", "% Inhibition": -3, "Z score": 0.35}, {"smiles": "CCc1nnc(N[C@H]2CCN(C)C[C@H]2Cc2ccccc2)o1", "% Inhibition": -6, "Z score": 0.85}, {"smiles": "CC1CCN(c2nnc(C(=O)N3CCCC3)n2Cc2ccco2)CC1", "% Inhibition": -7, "Z score": 1.4}, {"smiles": "c1ccc(C2CCN(CCOC3CCCCO3)C2)nc1", "note": "(stereo not given)", "% Inhibition": -2, "Z score": 0.21}, {"smiles": "Clc1ccc(COc2ccc(Br)cc2CNc2ccc(-c3nc4ccccc4o3)cc2)c(Cl)c1", "% Inhibition": -39, "Z score": 4.57}, {"smiles": "CC(=O)NCCNC(=O)[C@H]1CC[C@H](C(C)C)CC1", "% Inhibition": -16, "Z score": 1.51}, {"smiles": "CN(Cc1cc[nH]n1)C(=O)c1ccc(S(=O)(=O)N2CCNCC2)cc1", "% Inhibition": -5, "Z score": 0.99}, {"smiles": "Cc1n[nH]c(C)c1Cc1ncnn1Cc1ccccc1", "% Inhibition": 2, "Z score": -0.37}, {"smiles": "O=C(Nc1ccc2ccccc2c1)C1=C(c2ccccc2)S(=O)(=O)CCO1", "% Inhibition": 4, "Z score": -0.52}, {"smiles": "O=C(NC1CCCCCC1)c1nc(-c2ccncc2)cs1", "% Inhibition": -8, "Z score": 1.37}, {"smiles": "CC(C)CN1CCCn2nc(CNC(=O)C3=NN(C)C(=O)CC3)cc2C1", "% Inhibition": 1, "Z score": -0.24}, {"smiles": "COc1ccccc1NC(=O)C1CC=CCC1C(=O)N(c1ccccc1)c1ccccc1", "note": "(stereo not given)", "% Inhibition": -9, "Z score": 1.83}, {"smiles": "Cc1cccc(N2CCN(C(=O)c3c[nH]c4cccnc34)CC2)c1C", "% Inhibition": -2, "Z score": 0.36}, {"smiles": "COCCN(c1ccncc1)S(=O)(=O)c1ccc(Cl)s1", "% Inhibition": -3, "Z score": 0.3}, {"smiles": "Cc1cccc(OCC(=O)N2CCC(CN3C[C@@H](C(=O)N4CCOCC4)CC3=O)CC2)c1", "% Inhibition": -5, "Z score": 0.85}, {"smiles": "O=S(=O)(N[C@H]1CCc2nc(-c3ccccc3)ncc2C1)c1ccc2ccccc2c1", "% Inhibition": 12, "Z score": -1.55}, {"smiles": "O=S(=O)(NCCc1nc(C2CC2)no1)c1cn[nH]c1", "% Inhibition": -15, "Z score": 2.1}, {"smiles": "C[C@@H]1Oc2ccc(Cl)cc2CN(c2cc(F)cc(F)c2)C1=O", "% Inhibition": 5, "Z score": -0.9}, {"smiles": "COc1ccc(-n2ncc3c(NC4CCC(NC(=O)c5ccco5)CC4)nc(C)nc32)cc1", "note": "(stereo not given)", "% Inhibition": -8, "Z score": 1.4}, {"smiles": "O=C(O)c1ccc(CN2C[C@@H]3OCC(=O)N(Cc4ccccc4)[C@@H]3C2)cc1", "% Inhibition": 35, "Z score": -3.96}, {"smiles": "Cc1cnccc1NC(=O)N[C@@H]1CCC[C@@H]1Oc1cnn(C)c1", "% Inhibition": -1, "Z score": 0.18}, {"smiles": "CCN1C[C@H](Nc2ncccc2C#N)[C@@H](OC)C1", "% Inhibition": -13, "Z score": 1.15}, {"smiles": "Cc1ccoc1C(=O)N1CCC[C@H]1c1ccc2c(c1)OCCO2", "% Inhibition": -11, "Z score": 1.14}, {"smiles": "O=C(NCc1ccnc(-c2cccs2)c1)c1cccs1", "% Inhibition": -1, "Z score": 0.16}, {"smiles": "O[C@@H]1CCC(Nc2nc3cccc(F)c3o2)C[C@@H]1O", "note": "(stereo not given in full)", "% Inhibition": -4, "Z score": 0.81}, {"smiles": "COCc1ncc(CN2CC[C@@]3(CCCN(C4CCCC4)C3=O)C2)cn1", "% Inhibition": 2, "Z score": -0.41}, {"smiles": "Cc1cc(=O)c(C(=O)OC2CCCCCCC2)c[nH]1", "% Inhibition": -2, "Z score": 0.41}, {"smiles": "CN(CC1CCCCO1)C(=O)CCC1(Cc2ccc3ccccc3c2)CCC(=O)N1", "note": "(stereo not given)", "% Inhibition": 5, "Z score": -0.73}, {"smiles": "Cc1cc(-n2cnnc2)ncc1-c1ccoc1", "% Inhibition": -7, "Z score": 1.16}, {"smiles": "O=C(Nc1ccc2c(c1)OCCO2)N1CCCCC[C@@H]1CN1CCCC1", "% Inhibition": 3, "Z score": -0.5}, {"smiles": "Cc1nnc(Cn2nnc(C(=O)NCC3(CC(C)C)CCC3)c2C)o1", "% Inhibition": 31, "Z score": -4.51}, {"smiles": "CCc1ncc(CNc2ccc(C)cc2OCC(=O)N(C)C)s1", "% Inhibition": -1, "Z score": 0.08}, {"smiles": "CCCCC(CC)CC(=O)NCC1(O)CCOC1", "note": "(stereo not given)", "% Inhibition": -10, "Z score": 1.44}, {"smiles": "COc1ccc(CNC(=O)N2C[C@@H]3C[C@H](NS(=O)(=O)c4ccccc4)[C@H]2C3)cc1", "% Inhibition": 35, "Z score": -3.96}, {"smiles": "CC(=O)Nc1sc(NC(=O)COc2ccccc2C)nc1-c1cccs1", "% Inhibition": -12, "Z score": 1.44}, {"smiles": "CC(=O)N(Cc1ccc(F)cc1)CC1CN(Cc2sccc2C)CC1c1ccc(C)cc1", "note": "(stereo not given)", "% Inhibition": -3, "Z score": 0.26}, {"smiles": "CCCc1cnc(C)nc1N1CCC(NCCN2CCC[C@H](CO)C2)CC1", "% Inhibition": 4, "Z score": -0.68}, {"smiles": "CNc1cc(-c2ccc(C(=O)N3CCS(=O)(=O)CC3)cc2)nc(N)n1", "% Inhibition": -3, "Z score": 0.47}, {"smiles": "Clc1ccc2c(c1)CC[C@@H]2NCCc1nnc2n1CCC2", "% Inhibition": -3, "Z score": 0.45}, {"smiles": "CC[C@]1(CO)CCCN(c2cc3nncn3c(N)n2)C1", "% Inhibition": -5, "Z score": 0.9}, {"smiles": "Cc1c[nH]c(=O)n1-c1cccc(NC(=O)N2CC3CC=CCC3C2)c1", "note": "(stereo not given)", "% Inhibition": -10, "Z score": 1.57}, {"smiles": "Cc1noc(C)c1NC(=O)c1cccc(S(=O)(=O)N2CC3CC4CC3C2C4O)c1", "note": "(stereo not given)", "% Inhibition": -9, "Z score": 1.02}, {"smiles": "Cc1noc(CN(C)C2CCCCCC2)n1", "% Inhibition": -12, "Z score": 2.17}, {"smiles": "CC1CC(C)n2nccc2N1C(=O)COCC1CCCO1", "note": "(stereo not given)", "% Inhibition": 7, "Z score": -0.64}, {"smiles": "COc1cccc(CN2CCn3nc(C(=O)Nc4ccc5c(c4)CCC5)cc3C2=O)c1", "% Inhibition": -18, "Z score": 2.07}, {"smiles": "CC1(C)[C@H]2CC=C(CCNC(=O)c3cc(O)no3)[C@@H]1C2", "% Inhibition": -5, "Z score": 0.78}, {"smiles": "CCN1CC(=O)N[C@H]2CN(C(=O)COCCOC)CC[C@@H]2OCc2cccc(c2)Oc2cccc(c2)CC1=O", "% Inhibition": -17, "Z score": 2.14}, {"smiles": "CCOc1cncc(CNc2ccc(CO)cn2)c1", "% Inhibition": 2, "Z score": -0.24}, {"smiles": "O=C(Nc1ncc(Cc2ccccc2)s1)c1ccncc1", "% Inhibition": 1, "Z score": -0.23}, {"smiles": "O=C(Cn1cccn1)N[C@]1(CO)COc2ccccc2C1", "% Inhibition": -13, "Z score": 1.94}, {"smiles": "CC(C)(C)C1CC(N[C@H]2CCS(=O)(=O)C2)C1", "note": "(stereo not given in full)", "% Inhibition": -10, "Z score": 1.44}, {"smiles": "O=C1N[C@@H](c2cccc(OCc3ccccc3)c2)Nc2c1sc(=S)n2-c1ccccc1", "% Inhibition": -12, "Z score": 1.31}, {"smiles": "CC[C@H]1c2cccn2CCN1C(=O)c1cc[nH]n1", "% Inhibition": -13, "Z score": 2.45}, {"smiles": "COc1ccc(S(=O)(=O)N(CC(=O)N2CCNCC2)C[C@H](C)c2ccccc2)cc1OC", "% Inhibition": 1, "Z score": -0.15}, {"smiles": "O=C(CCc1ccncc1)N[C@H]1CCN(c2ncc(C(F)(F)F)cc2Cl)C1", "% Inhibition": -15, "Z score": 1.53}, {"smiles": "CN(Cc1nc(-c2ccoc2)no1)[C@H]1CS(=O)(=O)c2ccc(Cl)cc21", "% Inhibition": -12, "Z score": 1.62}, {"smiles": "CCOC(=O)c1sc2nc(-c3ccc(C(C)C)cc3)c(NCc3cccc(C)c3)n2c1C", "% Inhibition": 0, "Z score": 0.03}]}]}
